# Reference: PubChem BioAssay (NCATS)
# This list was built around the results that the source calls inconclusive (neither active nor inactive); the mix of calls is not that of the screen. For some assays here: Where the call is inconclusive, the potency comes from a doubtful curve fit. Calls of active or inactive are those of the source. Calls come from the whole dose curve; as a rule, active = well fitted curve in the direction sought with a large enough effect; inconclusive = small, poorly fitted or top-dose-only effect, or another doubt; inactive = no such curve, though single readings can be large; an effect the other way counts as inactive or inconclusive.
# Tests used:
# NIH3T3 = experiment: Cytotoxic Profiling of Annotated Libraries Using Quantitative High-Throughput Screening (AID 1296008); conditions: Five cell lines viability, CellTiter-Glo ATP luminescence, 48-72 h; max response: hits give low values; note: nearly all actives have a fitted effect of over 60% in size
# How it was run: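 Cytotoxicity was measured as CellTiter-Glo ATP luminescence, read after 10 min at room temperature. Compound treatment of the cells lasted 48 or 72 hr at 37 degrees Celsius in a qHTS format.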
# MKL-2 = experiment: qHTS assay to identify novel small-molecules to repurpose for Merkel cell carcinoma treatment (AID 1296009); conditions: MCC and control cell lines, CellTiter-Glo viability, 72 h; series mostly up to 46 µM; note: nearly all actives have a fitted effect of over 60% in size
# How it was run: (§1)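 72 hr, 37 degree celsius; NPC 8-pt / MIPE 11-pt dose response; compound pinned in DMSO; CellTiter-Glo, 10 min RT, luminescence; normalized to no-cell and DMSO controls.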
# C33A = experiment: Primary qHTS to identify gynecologic anti-cancer compounds using libraries of approved drugs and bioactive compounds (AID 1345084); conditions: Gynecologic cancer cell panel viability, ATPlite luminescence, 48 h; series mostly up to 57.5 µM; note: nearly all actives have a fitted effect of over 55% in size
# How it was run: (§2)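 Cell viability after 48 h drug treatment, ATPlite luminescence readout; five doses.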
# CAOV3 = experiment: as above; conditions: Gynecologic cancer cell panel viability, ATPlite luminescence, 48 h; series mostly up to 57.5 µM
# How it was run: as §2
# MCC-13 = experiment: qHTS assay to identify novel small-molecules to repurpose for Merkel cell carcinoma treatment (AID 1296009); conditions: MCC and control cell lines, CellTiter-Glo viability, 72 h; series mostly up to 46 µM; note: nearly all actives have a fitted effect of over 60% in size
# How it was run: as §1
# MCC-26 = experiment: as above; conditions: MCC and control cell lines, CellTiter-Glo viability, 72 h; series mostly up to 46 µM
# How it was run: as §1
# MKL-1 = experiment: as above; conditions: MCC and control cell lines, CellTiter-Glo viability, 72 h; series mostly up to 46 µM
# How it was run: as §1
# UISO = experiment: as above; conditions: MCC and control cell lines, CellTiter-Glo viability, 72 h; series mostly up to 46 µM
# How it was run: as §1
# WaGa = experiment: as above; conditions: MCC and control cell lines, CellTiter-Glo viability, 72 h; series mostly up to 46 µM
# How it was run: as §1
# Potency is the fitted concentration of half-maximal effect; tags give direction and shape of the fitted curve.
structure (smiles),measurement,setting,value
Cc1cnc(Nc2cccc(CN3CCOCC3)c2)nc1Nc1cccc(S(=O)(=O)NC(C)(C)C)c1,Potency,NIH3T3,"inconclusive: 6.51 µM [inhibitor, single point]"
same,Potency,MKL-2,inactive
same,Potency,C33A,inactive
same,Potency,CAOV3,"inconclusive: 1.12 µM [cytotoxic, single point]"
COc1ccc2[nH]cc(CCNC(C)=O)c2c1,Potency,MCC-13,inactive
CCOc1cc(N)c(Cl)cc1C(=O)NCC1CN(Cc2ccc(F)cc2)CCO1 (configuration not stated),Potency,MCC-13,inactive
Cc1[nH]c(C=C2C(=O)Nc3ccc(S(=O)(=O)N(C)c4cccc(Cl)c4)cc32)c(C)c1C(=O)N1CCN(C)CC1,Potency,MCC-13,"inconclusive: 20.9 µM [inhibitor, single point]"
same,Potency,MCC-26,"inconclusive: 29.6 µM [inhibitor, single point]"
same,Potency,MKL-1,"inconclusive: 26.4 µM [inhibitor, single point]"
same,Potency,MKL-2,active: 20.9 µM
same,Potency,UISO,"inconclusive: 26.4 µM [inhibitor, single point]"
CC(C)[C@H](CO)Nc1nc(Nc2cccc(Cl)c2)c2ncn(C(C)C)c2n1,Potency,MCC-13,"inconclusive: 10.5 µM [inhibitor, partial curve]"
same,Potency,MKL-1,"inconclusive: 26.4 µM [inhibitor, partial curve, poor fit]"
same,Potency,MKL-2,"inconclusive: 2.96 µM [inhibitor, full curve, poor fit]"
same,Potency,WaGa,"inconclusive: 20.9 µM [inhibitor, partial curve]"
COC(=O)C1=C(C)NC(C)=C(C(=O)OC(C)C)C1c1cccc2nonc12 (configuration not stated),Potency,NIH3T3,"inconclusive: 33.5 µM [inhibitor, single point]"
same,Potency,UISO,inactive
